The record followed here is patent US11866509B2, “Humanized antibodies against CEACAM1” (Famewave Ltd., priority 2014, dated 2024).

Common to all, as to format: cell-based
Series [1] relates to human pancreatic cancer cells T3M4. Nature of the series: Cytotoxicity of human LAK cells against pancreatic cancer cells, LDH release. The note with it: 0.1 μg/ml to 10 μg/ml CM-24, 24 hours. As for the experimental part:
FIG. 10. Anti-CEACAM1 antibodies increase the cytotoxicity of human LAK cells against a human pancreatic cancer cells T3M4. Human LAK cells were incubated with CM-24 in different concentrations for 30 minutes at 37° C. Human pancreatic cancer cells T3M4 were added for an incubation of 24 hours. Results represent an average of % cytotoxicity ±SE as determined by classical LDH release assay from triplicate wells per treatment. * P≤0.05 paired T-test compared to effectors+target cells with medium only.
(§1) • A. Anti-CEACAM1 antibodies increase the cytotoxicity of human LAK cells against human melanoma cells: PBMC cells were isolated from a healthy donor followed by activation with IL-2 (500 or 1000 units/ml) for 3 days to generate a population of human LAK cells. Then, the human LAK cells were incubated with 0.1 μg/ml, 0.5 μg/ml, 2.5 μg/ml, 5 μg/ml or 10 μg/ml of an anti-CEACAM1 antibody (CM-24) for 30 minutes at 37° C. Human melanoma cells (SKMEL28) were added for an incubation of 24 hours, after which cytotoxicity was determined. […] PBMC cells were isolated from a healthy donor followed by activation with IL-2 (500 units/ml) for 7 days to generate a population of human LAK cells. […] Granzyme B secretion was measured by ELISA. […] IFN-γ secretion was measured by ELISA.

For series [2], the system named is Human peripheral blood mononuclear cells (PBMCs) and whole blood. The series can be described thus: T cell proliferation and pro-inflammatory cytokine secretion in PBMCs and whole blood. The note with it: 10 healthy donors; soluble or dry-coated immobilized formats. As for the experimental part: Pre-clinical evaluation of the safety of CM-24 included assessment of the effect of CM-24 on T cell proliferation and pro-inflammatory cytokine secretion. Human peripheral blood mononuclear cells (PBMCs) and whole blood from 10 healthy donors were evaluated and the antibody was presented by both soluble and immobilized form.

The test system of series [3] is IFN-γ secretion of human LAK cells. The series can be described thus: IFN-γ secretion of human LAK cells with lung cancer cells, ELISA. As to conditions: with H358 or H460 cells, 24 hours. As for the experimental part:
FIGS. 11A and 11B. Anti-CEACAM1 antibodies enhance IFN-γ secretion of human LAK cells in the presence of human cancer cells. Human LAK cells were incubated with CM-24 in different concentrations for 30 minutes at 37° C. Human lung cancer cells H358 (FIG. 11A) or H460 (FIG. 11B) were added for an incubation of 24 hours. IFN-γ secretion was measured by ELISA. Results represent the mean+S.E of Granzyme B release values from 3 repeats per treatment. *P≤0.05 paired T-test, compared to effectors+target cells with medium only.
as §1

B1: CM-24: back-mutated humanized IgG4 anti human CEACAM1 monoclonal antibody; light chain SEQ ID NO: 52, heavy chain SEQ ID NO: 53 (antibody)
heavy: QVQLVQSGAEVKKPGASVKVSCKASGYAFTNNLIEWVRQAPGQGLEWIGVINPGSGDTNYNEKFKGRVTMTADKSISTAYMELSRLRSDDTAVYYCARGDYYGGFAVDYWGQGTTVTVSSASTKGPSVFPLAPCSRSTSESTAALGCLVKDYFPEPVTVSWNSGALTSGVHTFPAVLQSSGLYSLSSVVTVPSSSLGTKTYTCNVDHKPSNTKVDKRV[letters of human IgG4 Fc with S228P (EU numbers) left out]
light: DIQMTQSPSSLSASVGDRVTITCRTSQDIGNYLNWYQQKPGKAVKLLIYYTSRLHSGVPSRFSGSGSGTDYTLTISSLQPEDIATYFCQQGKSLPRTFGGGTKVEIKRTVAAPSVFIFPPSDEQLKSGTASVVCLLNNFYPREAKVQWKVDNALQSGNSQESVTEQDSKDSTYSLSSTLTLSKADYEKHKVYACEVTHQGLSSPVTKSFNRGEC
With B1, the “cytotoxicity of human LAK cells” value in series [1] was “significantly increases cytotoxicity”. In series [2], the T cell proliferation entry was “no apparent CM-24-induced proliferation” and the pro-inflammatory cytokine secretion entry was “no significant pro-inflammatory cytokine secretion”. The IFN-γ levels result in series [3] is recorded as “significantly increases IFN-γ levels in a dose-dependent manner”.
